Test results taken from the supplement of paper PMC3334620.
The full ranking holds about 33,000 sequences; the median of “E-score (-0.5 to 0.5)” is about -0.011, and the highest 2% start at about 0.28. The list shows a part of the results.

target: T1, Gcr1 (UniProt P07261); test: PBM E-score (8-mer binding enrichment) (E-score (-0.5 to 0.5)); higher = stronger / more preferred TF binding; most listed sequences are background and not binding sites; settings: protein concentration: 100 nM; construct: GST-full length
T1 sequence: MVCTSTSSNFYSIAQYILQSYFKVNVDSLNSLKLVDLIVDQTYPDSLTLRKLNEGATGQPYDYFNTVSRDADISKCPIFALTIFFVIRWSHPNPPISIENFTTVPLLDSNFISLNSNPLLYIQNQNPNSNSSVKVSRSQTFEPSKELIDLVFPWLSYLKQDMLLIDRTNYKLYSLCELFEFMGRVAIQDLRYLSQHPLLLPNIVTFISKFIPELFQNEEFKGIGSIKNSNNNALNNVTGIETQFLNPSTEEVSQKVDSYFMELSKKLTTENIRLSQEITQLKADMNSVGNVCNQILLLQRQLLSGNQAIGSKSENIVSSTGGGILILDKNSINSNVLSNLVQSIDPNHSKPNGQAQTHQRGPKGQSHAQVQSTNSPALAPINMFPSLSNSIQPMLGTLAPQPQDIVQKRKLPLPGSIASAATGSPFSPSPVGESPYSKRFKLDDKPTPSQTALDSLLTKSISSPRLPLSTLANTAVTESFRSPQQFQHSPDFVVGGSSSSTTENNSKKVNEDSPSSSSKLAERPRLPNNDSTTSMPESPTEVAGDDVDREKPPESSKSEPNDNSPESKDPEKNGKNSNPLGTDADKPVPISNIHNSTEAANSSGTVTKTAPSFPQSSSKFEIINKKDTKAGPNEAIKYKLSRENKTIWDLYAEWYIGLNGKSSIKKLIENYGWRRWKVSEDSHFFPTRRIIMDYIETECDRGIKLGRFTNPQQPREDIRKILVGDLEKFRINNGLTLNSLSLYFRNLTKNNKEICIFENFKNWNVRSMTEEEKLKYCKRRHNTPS
Method in brief: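 Bound GST-tagged yeast transcription factors, applied at about 100-200 nM to double-stranded universal all-10-mer Agilent arrays, were detected with fluorescent anti-GST. Scans were normalised with masliner. A modified Wilcoxon-Mann-Whitney statistic, the E-score, was assigned to each ungapped eight-base word pooled with its reverse complement by the Universal PBM Analysis Suite.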

| Sequence | PBM E-score |
| --- | --- |
| CGCAGGCA | -0.0288 |
| CCAACCAG | 0.0242 |
| ATACGTAA | 0.053 |
| ATGGTCTC | -0.136 |
| ATCGAGCA | 0.0359 |
| ACTGGTTC | -0.00118 |
| CCGCTGCG | 0.0151 |
| ACTATTAT | 0.123 |
| GGAGCCAC | 0.289 |
| GTTCCACA | 0.115 |
| CGGTCGCA | -0.09 |
| GGGCACCA | 0.364 |
| CTCTCTAC | -0.278 |
| CCGACACG | 0.03 |
| ATGGGTGA | -0.0671 |
| CACGCCGA | -0.207 |
| AGGTACAC | -0.087 |
| TAGACCCA | -0.089 |
| CCACGGGA | 0.0479 |
| GATTATCC | -0.103 |
| CACCCACA | 0.127 |
| CAGTGAGC | -0.272 |
| TCCTCCCA | -0.206 |
| CCGCCAGG | -0.114 |
| ACTGTAGC | -0.174 |

| Sequence | PBM E-score |
| --- | --- |
| AAAAAAAA | 0.243 |
| CTCTAGCA | 0.053 |
| AATCTTGG | 0.245 |
| CGGCCGTA | -0.0291 |
| AGGAAGGG | -0.0994 |
| ACCCGAAC | 0.00324 |
| GAAGAAGC | 0.318 |
| TGCGACAA | 0.0608 |
| ATGGTACA | 0.105 |
| AGGGGTTG | 0.0343 |
| ATTAGGGG | 0.11 |
| GGAGCCAA | 0.33 |
| GCCGGGGA | -0.049 |
| AACGCGGA | -0.102 |
| GCTACTAA | 0.111 |
| ATAGCATA | -0.0239 |
| CGCCCCCA | 0.173 |
| AAGCAGAA | 0.0924 |
| AATTGGGC | 0.0472 |
| CCTAGTGC | -0.0169 |
| CCGCAGGC | 0.0198 |
| CATTCGAC | 0.0126 |
| ACCCTACA | -0.121 |
| ACGAGACT | -0.16 |
| CTAGCAAA | 0.00946 |

| Sequence | PBM E-score |
| --- | --- |
| AAGGAGAT | -0.109 |
| AAGCCACT | 0.128 |
| ACCCCTCC | -0.0116 |
| TCCACAAA | 0.288 |
| ACTCAACT | -0.0211 |
| AATCCTAA | 0.205 |
| AATATCAT | 0.0703 |
| AACGTCTG | -0.089 |
| GAAAGCTA | -0.223 |
| AGGGGTAG | 0.187 |
| AGACAGTA | -0.222 |
| GATTTTCA | 0.0679 |
| ACGTATGA | -0.145 |
| GGTAACGA | -0.115 |
| ACGATTTA | 0.0363 |
| CCGGAATC | 0.219 |
| CGGGGCAC | 0.126 |
| TGAATGCA | -0.0305 |
| CGTTCCCC | -0.0544 |
| CTACGGCC | -0.309 |
| TACAGTAA | 0.0827 |
| CTTATGAA | -0.0404 |
| CGTTATCA | 0.136 |
| AACCCCCT | -0.273 |
| ATAGGTTC | 0.14 |

| Sequence | PBM E-score |
| --- | --- |
| GTTCGAAA | -0.0133 |
| AAGTTTTA | 0.131 |
| ACTCTGTA | -0.124 |
| AAAGTAGC | 0.18 |
| AAGCAATC | -0.119 |
| CATGGAAG | -0.0984 |
| ATGACGGG | -0.143 |
| ATTACATG | 0.143 |
| CCCTTCGA | -0.234 |
| GAAATCGA | -0.125 |
| TGTTCGAA | -0.0844 |
| AACATGAA | 0.0344 |
| ACTCGTTG | 0.00721 |
| GTGGGGTA | 0.286 |
| GAGGTTGC | 0.128 |
| AGAACTCC | -0.122 |
| TACGTTGA | -0.0995 |
| CGCTCTCA | -0.0635 |
| AATAGGAT | 0.187 |
| GGAATTAC | 0.105 |
| CGAGGCAC | -0.232 |
| CCGTAATA | 0.155 |
| CTCGTTTC | -0.0255 |
| CGAGAGAA | 0.0297 |
| AAGACAGC | -0.151 |

| Sequence | PBM E-score |
| --- | --- |
| ATTCACCC | -0.0258 |
| ATTTTAAC | 0.107 |
| TCCCGGAA | 0.15 |
| AGCTTCAA | 0.0987 |
| TAGTGTCA | 0.0551 |
| AGAATCCT | 0.252 |
| ATATAGTC | -0.0702 |
| ACCACTGA | 0.0982 |
| CGTGTATC | 0.0534 |
| CCCCCTAC | -0.129 |
| CCAATGAA | 0.00946 |
| ACACCCGA | -0.0231 |
| GGAGTACC | -0.0959 |
| ATGAAATC | 0.0997 |
| AAGATTCC | 0.271 |
| GCTGAACC | -0.139 |
| CGCCCGGC | -0.0364 |
| AGGGCGTG | -0.126 |
| CCCTCGTA | 0.0722 |
| CATTGACA | -0.0443 |
| AGTATATG | -0.00906 |
| GGAACCGA | 0.145 |
| CTGCATGA | -0.0692 |
| AACGACGT | 0.0753 |
| CACGAAGG | -0.0187 |

| Sequence | PBM E-score |
| --- | --- |
| ATGACCAT | 0.0994 |
| AACGCCAT | 0.0568 |
| CCAACGCG | -0.0273 |
| GAAGCGGA | 0.328 |
| AGGACTAT | 0.0596 |
| GAGCAAAC | -0.217 |
| CTATCTTC | -0.105 |
| GCAAACGA | 0.013 |
| ACGCGAGA | -0.0237 |
| CATCACAG | -0.254 |
| CCCCTAAC | 0.0809 |
| CCCGGCGA | -0.139 |
| GACAGGTA | -0.0352 |
| AGGGAGAG | -0.108 |
| GGATCGCC | 0.0745 |
| AAAGACGA | 0.097 |
| GGATCAAA | -0.109 |
| AATTTTCG | 0.0174 |
| AGGACAAG | -0.177 |
| GGCTACAC | -0.0387 |
| CACAGCAC | -0.068 |
| ACAAGTAC | 0.0978 |
| CCTATAGA | 0.286 |
| CCCCGAAG | -0.107 |
| AAGCTGAT | 0.0731 |

| Sequence | PBM E-score |
| --- | --- |
| GAGATCAA | -0.0647 |
| CTCACAAG | -0.00051 |
| CGTATATA | 0.0756 |
| CCGGGACC | 0.17 |
| AAGACCAT | -0.102 |
| GAAGGGAC | -0.279 |
| ATGTTTCA | 0.0598 |
| CTTTGGTC | 0.0162 |
| AACGCTAA | 0.0143 |
| CGGGATTC | 0.39 |
| ATCCATGG | -0.0489 |
| CTAAATCC | 0.274 |
| GCTTGTAA | 0.0297 |
| AGTTCTCC | -0.0656 |
| CCTTGGTA | 0.00547 |
| CATTGAGG | -0.00551 |
| CACGTCGA | -0.0152 |
| AGCACTAA | -0.0258 |
| AGGTAGGC | -0.0702 |
| GACCATCC | -0.0793 |
| AAACCTCT | -0.0243 |
| CGAGGTCC | -0.0269 |
